# Several values for one entry are separate records, joined by “and”; a condition that tells them apart may be missing. Equal entries are not always repeated. Hit rate of the full screen: of about 350,000 compounds, about 9,900 (2.8%) were called active. The shares of active, inactive and inconclusive entries below differ from those in the screen. Calls follow the shape of the dose curve; as a rule, active = well fitted activation curve with a large enough effect; inconclusive = small, poorly fitted or top-dose-only effect; inactive = no such curve, though single readings can be large or run the other way. Potencies of inconclusive entries are doubtful fits and often do not repeat.
# Assay: A quantitative high throughput screen for small molecules that induce DNA re-replication in MCF 10a normal breast cells. Also: nearly all actives have a fitted effect of over 50% in size. As to activity, positive = re-replication: % of control where 0% means no effect.
# Conditions: MCF 10A DNA re-replication, Hoechst nuclear intensity, 48 h; activity, positive = re-replication: at 46.1 µM (top of the series)
# Potency is read from the fitted curve at half-maximal effect; tags tell the direction and shape of the fitted curve.
SMILES,Potency,"activity, positive = re-replication"
Cc1ccc(S(=O)(=O)/N=C(\N)Nc2nc(C)c3ccccc3n2)cc1,"inconclusive: 29.1 µM [activator, single point]",–
Cc1cc(NC(=O)/C(C#N)=C/c2ccc(-c3ccc(SC(F)F)cc3)o2)n(-c2ccccc2)n1,active: 5.8 µM,–
COc1ccccc1NC(=O)C1=C(C)NC2=C(C(=O)CCC2)C1c1ccc2c(c1)OCO2 (stereo not drawn),–,inactive: -0.766%
Cc1c(C(=O)N2CCN(c3ncccn3)CC2)sc2nc3n(c(=O)c12)CCCC3,–,inactive: -8.42%
CCn1ccnc1C(O)(c1ccccc1)c1ccccc1,"inconclusive: 3.66 µM [activator, single point]",–
CC1(C)COC(c2ccccc2Cl)OC1,–,inactive: -37.5%
O=C(/C=C/C(=O)NCc1cccs1)NCc1cccs1,"inconclusive: 6.51 µM [activator, single point]",–
CC1=C(C(=O)Nc2ccccc2)C(c2ccc(Cl)cc2)n2c(s/c(=C/c3cccc(OCC(=O)O)c3)c2=O)=N1 (stereo not drawn),"inconclusive: 29.1 µM [activator, single point]",–
COc1cccc(N2CCN(c3nc(C)cc(C)c3C#N)CC2)c1,"inconclusive: 2.06 µM [activator, partial curve, poor fit]",–
S=C(NCCc1ccccc1)Nc1ccc(Cl)cc1,"inconclusive: 29.1 µM [activator, single point]",–
CCOC(=O)CSc1cccc2cccnc12,–,inactive: 20.4%
c1ccc(Oc2nc(-c3ccccn3)nc3ccccc23)cc1,"inconclusive: 29.1 µM [activator, single point]",–
Cc1ccc(S(=O)(=O)N2CCOCC2)cc1NC(=O)Cn1nc(C)c([N+](=O)[O-])c1C,–,inactive: 0.421%
Cc1nc2cc(NC(=O)C3COc4ccccc4O3)ccc2s1 (stereo not drawn),–,inactive: -2.43%
CCN(CC(=O)NCc1ccc(F)cc1)C(=O)/C=C/c1ccc(OC)cc1,–,inactive: -16.9%
CCSc1nc2c(c(=O)[nH]1)C(c1cccnc1)C(C(=O)OC(C)C)=C(C)N2 (stereo not drawn),"inconclusive: 18.4 µM [activator, single point]",–
Cc1cc(Nc2ccccc2)n2nc(C)c(-c3ccccc3)c2n1,–,inactive: -0.205%
Cc1ccc2cn[nH]c2c1NC(=S)NC(=O)c1ccccc1,–,inactive: 4.1%
Oc1c(CN2CCCCC2)cc(COCc2ccccc2)c2cccnc12,active: 16.4 µM,–
O=c1c(Cc2ccc(Cl)cc2Cl)c(O)ccn1Cc1ccc(Cl)cc1,"inconclusive: 20.6 µM [activator, single point]",–
Cc1cc(C)c2nc(N3CCC(C(=O)NCC4CCCO4)CC3)sc2c1 (stereo not drawn),"inconclusive: 32.6 µM [activator, partial curve, poor fit]",–
Cc1cccc(N2C(=O)CCC2=O)n1,–,inactive: 4.32%

SMILES,Potency,"activity, positive = re-replication"
O=C(COC(=O)c1ccccc1[N+](=O)[O-])c1ccc(C2CCCCC2)cc1,"inconclusive: 20.6 µM [activator, partial curve, poor fit]",–
Cn1c(/C=C/c2ccc(Cl)cc2Cl)c([N+](=O)[O-])c(=O)n(C)c1=O,active: 2.91 µM,–
COc1ccc(N2CCN(C(=O)C3CCN(S(=O)(=O)c4c(C)noc4/C=C/N(C)C)CC3)CC2)cc1,"inconclusive: 29.1 µM [activator, single point]",–
O=C(O)c1cccc2c1C(=O)c1cccc3snc-2c13,"inconclusive: 29.1 µM [activator, single point]",–
CC(=O)OC1C(=O)N(Cc2ccccc2)C1c1ccc(C)cc1 (stereo not drawn),"inconclusive: 29.1 µM [activator, partial curve, poor fit]",–
Cc1sc(NC(=O)Nc2ccccc2)c(C(N)=O)c1C,–,inactive: 0.722%
COc1ccc2nc(NC(=O)c3ccc([N+](=O)[O-])o3)sc2c1,active: 4.61 µM,–
Cc1cccc(N2CCN(C(=O)c3ccc(NS(=O)(=O)c4c(C)noc4C)cc3)CC2)c1C,"inconclusive: 6.51 µM [activator, partial curve]",–
O=C(COc1ccc([N+](=O)[O-])cc1)Nc1ccccc1N1CCCC1,"inconclusive: 23.1 µM [activator, partial curve, poor fit]",–
CCN(CC)C(=O)CC(c1cc(OC)c(OC)c(OC)c1)c1c(OC)cc(OC)c2c(-c3ccccc3)cc(=O)oc12 (stereo not drawn),–,inactive: -2.96%
CC(=O)N1CCN(C(=O)CC2OC(=O)c3ccccc32)CC1 (stereo not drawn),"inconclusive: 25.9 µM [activator, single point]",–
CC(C)CN(CC(C)C)S(=O)(=O)N1CCC(C(=O)NCc2cccs2)CC1,"inconclusive: 25.9 µM [activator, partial curve, poor fit]",–
c1ccc(-c2nnc3sc(-c4ccncc4)nn23)cc1,–,inactive: 20.4%
COc1ccc(CCNCC(O)COc2ccc(Cl)cc2)cc1OC (stereo not drawn),–,inactive: 17.4%
CCOC(=O)C1CCN(C(=O)Nc2ccc(OCc3ccccc3)cc2)CC1,"inconclusive: 1.3 µM [activator, full curve, poor fit]",–
C[C@H]1O[C@@H](O[C@H]2[C@@H](O)C[C@H](O[C@H]3[C@@H](O)C[C@H](O[C@H]4CC[C@@]5(C)[C@H](CC[C@@H]6[C@@H]5C[C@@H](O)[C@]5(C)[C@@H](C7=CC(=O)OC7)CC[C@]65O)C4)O[C@@H]3C)O[C@@H]2C)C[C@H](O)[C@@H]1O,"inconclusive: 116 nM [activator, full curve, poor fit] and inconclusive: 119 nM [activator, full curve] and inconclusive: 65.1 nM [activator, full curve, poor fit]",–
CCOC(=O)c1oc2ccccc2c1CN1CCN(c2ccccc2)CC1,"inconclusive: 16.4 µM [activator, partial curve, poor fit]",–
CSc1cc(-c2ccccc2)n(Cc2ccc(Cl)cc2Cl)c(=O)c1C#N,"inconclusive: 16.4 µM [activator, single point]",–
CC(OC(=O)C(C)N1C(=O)C2C3C=CC(C4CC34)C2C1=O)C(=O)c1ccccc1 (stereo not drawn),"inconclusive: 4.61 µM [activator, full curve]",–
CC(=O)N(c1ccccc1)c1nnc(-c2cnc(C)cn2)s1,–,inactive: -0.793%
O=C(NCc1ccncc1)c1ccc(OCc2ccccc2)cc1,–,inactive: -0.392%
